Experimental data reported in the supplement of paper PMC11417369.
± gives the standard deviation of the averaged measurements. The list shows a part of the results.

system: PfAP2-EXP AP2 domain (GST-tagged); assay: gcPBM binding intensity (ln(normalized median fluorescence intensity)); higher = stronger DNA binding
Summary of the method: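 GST-fused DNA-binding domains of P. falciparum, expressed in E. coli, were applied at about 25 μg on average for 1 h to an Agilent 4 × 180k array of primer-extended double-stranded 36-bp intergenic genomic probes and negative controls. Binding intensity is the highest Masliner-normalised natural-log median intensity across replicate spots of either probe orientation, measured with Alexa488 anti-GST antibody and a 488 nm scan.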

| Sequence | gcPBM binding intensity (ln) |
| --- | --- |
| CAAAAAATACGATGTTGTACTATGTATTCCTGATGT [XGTACX_site246] | 8.35 ± 0.28 |
| TACTTCGATAATAATCGTACATATATATTGTATTTA [XGTACX_site5700] | 8.63 ± 0.38 |
| TTTTCTTTTAAACATATATATATATATATATATATA [XGTACX_negctrl_site559] | 10.4 ± 0.23 |
| TGTAGACTACATAGTAGTACATAATATATACATATA [XGTACX_site367] | 8.32 ± 0.38 |
| TATATATATATAATTACACACAATGTTCTATATATA [CACACA_site3235] | 9.72 ± 0.16 |
| TATTTATTTAATTACACACGAACATATAACCATTTC [CACACA_site211] | 8.72 ± 0.35 |
| ATTTCTTTGCTTTTCAAACACACAAAAGTTATTATA [CACACA_site520] | 8.69 ± 0.47 |
| GTTGAAAAAAAAAATGCACACGCATACATATAATAT [CACACA_site8117] | 8.63 ± 0.4 |
| GAATATTACATGTATTGTACAGGTAATGTTAAAAAT [XGTACX_site8274] | 8.72 ± 0.4 |
| TTTTTTGTATTTTTCACACACTCTCTATCTCTCTCA [CACACA_site2095] | 8.87 ± 0.48 |
| AAAAAAAAAAAAAAAACACACATATATATTATTGTA [CACACA_site3979] | 8.48 ± 0.18 |
| TAACATAAATCCATACGTACCTATATATATATAATA [XGTACX_site2626] | 8.58 ± 0.33 |
| ATTTATATTAAAAGTGTGCACTTTTTTTTTTTTTTT | 8.67 ± 0.042 |
| TCATTCCATACTTTAACACACAAATATATTTAATCC [CACACA_site145] | 8.76 ± 0.53 |
| ATATATATATATATATGTACATATTCACTTATATTT [XGTACX_site5324] | 10.1 ± 0.45 |
| TTTTTTTTTTTGTTTTGTACATAAATTGCAACCAAT [XGTACX_site8949] | 8.73 ± 0.57 |
| TAATCATAAAAAAATACACACATATAAAATATAGAT [CACACA_site7020] | 8.56 ± 0.4 |
| ATATTTATAAATTGCACACAAATAATAACATTATAT [CACACA_site5322] | 8.48 ± 0.26 |
| AAAAGTTAAGCAACAAATTTTATTTCTTATATATAA [TGCATGCA_negctrl_site134] | 8.3 ± 0.34 |
| AAAATTCTTATAAGATGTACAATTTGTAACACTATA [XGTACX_site510] | 8.62 ± 0.42 |
| TTTTTTACAACACGAAAATGAACAATTATAATAAAT [TGCATGCA_negctrl_site301] | 8.76 ± 0.53 |
| TTATACTCACGTTACACACACACAATATATATATAT [CACACA_site4137] | 9.96 ± 0.38 |
| AAATAAATATATAATACACACAAAAATATAAAATGT [CACACA_site3711] | 8.95 ± 0.32 |

| Sequence | gcPBM binding intensity (ln) |
| --- | --- |
| TTTTGTATATATTATTGTACTTTTAATATAGATCGT [XGTACX_site5830] | 8.54 ± 0.4 |
| TCACATACATTACTTACACACCATATTAAGATATAC [CACACA_site4415] | 8.68 ± 0.43 |
| AGTAAAAAAAATATCTGTACATATTAATATAAATGT [XGTACX_site6234] | 8.54 ± 0.26 |
| AAATATTATTCTTTTATTTTTAAACATATAATTATA [GTGCAC_negctrl_site136] | 8.26 ± 0.38 |
| ATCTAAAAATTTTACGCACACAAGTAAAAAAAAAAA [CACACA_site2485] | 8.76 ± 0.43 |
| TTATACACTGATAAAAGTACATTTGTATGTTTTTTT [XGTACX_site8959] | 8.35 ± 0.27 |
| TTTTATAATCATAATAGTACTTTTTCTTTTTCACAT [XGTACX_site5017] | 8.48 ± 0.4 |
| AATAATTTTTTAAACACACACACATATATATATATA [CACACA_site95] | 10.1 ± 0.3 |
| ATAAAGAAATAAAGTTGTACATTATATATATATATA [XGTACX_site7729] | 10 ± 0.42 |
| TGTTTAAAAATAATTTGTACATATATTTTATTTCAT [XGTACX_site1272] | 8.39 ± 0.38 |
| AATACATACGGACACACACACACATATATATATATA [CACACA_site5884] | 10.3 ± 0.17 |
| TCTTTTGTTTAACCTACATGCAGAATATAAGTCTTC [TGCATGCA_site99] | 9.03 ± 0.28 |
| ATTCATTATTCACCTTGTACACAAATGATTATCGTA [XGTACX_site455] | 8.84 ± 0.35 |
| AAAAAAAAAAGAAACACACACATTTGTCTATAATAT [CACACA_site7063] | 8.8 ± 0.71 |
| ATGTATGCAAAAATGGTGCATATTAAATGTATAACA [GTGCAC_site9722] | 9.035 ± 0.078 |
| TTTGTTCTTTTAATGTGTACATATACACTTGTAATA [XGTACX_site2635] | 8.7 ± 0.39 |
| TGACCTTATGTGTTTTGAAGGGGAAAGGAAATGCGC [XGTACX_negctrl_site411] | 8.72 ± 0.4 |
| TATAAAAATAGGATTTGTACATATAAAAAAGGAAAA [XGTACX_site8678] | 8.71 ± 0.53 |
| CAGAAATAGAGATACACACACACATATATTTATGTA [CACACA_site3968] | 8.46 ± 0.33 |
| TATAAATATATGTATGCACACATTTTTTTTGGAAAA [CACACA_site1070] | 8.4 ± 0.35 |
| TAATATAAAAAAGGTACTACACGAAGGAATAAAAAT [XGTACX_site6872] | 9.26 ± 0.58 |
| GGTATAATTCATATAACACACATTTCAATGTTAAAA [CACACA_site2172] | 8.49 ± 0.52 |
| TGTATTAATTTGTAATGTACACATATATGTATTATA [XGTACX_site4152] | 8.58 ± 0.42 |

| Sequence | gcPBM binding intensity (ln) |
| --- | --- |
| TAAGTAAACTTTCTATGTACATATTTTCAAATATTA [XGTACX_site6260] | 8.55 ± 0.4 |
| CTTATATATACATATACACACACACCCATATATATA [CACACA_site8705] | 8.76 ± 0.33 |
| ATGTAGACAACATATGAACACACAAAATATTTTTTT [CACACA_site8955] | 8.53 ± 0.45 |
| TTAACAAAATTTTTAACACACAAAAAAAAAAAAAAA [CACACA_site1828] | 8.23 ± 0.47 |
| CCAAAATTTATAAATTGTACATATTTTTAAATTCTT [XGTACX_site833] | 8.4 ± 0.53 |
| ATAAAAGAATTAAATAATCAAAATGATTATTTTATA [CACACA_negctrl_site466] | 7.76 ± 0.42 |
| GATAAATAATAATAAGGTACACATAAAATATTCCTT [XGTACX_site2963] | 8.29 ± 0.36 |
| AATTATATACATAAGTGTACATAATATATAAACATA [XGTACX_site793] | 8.31 ± 0.28 |
| TTTTCAATTAATAATACACACATGTATTTATTATTA [CACACA_site5774] | 8.3 ± 0.35 |
| TGTTGTAAATTAAAGACATGCACGTGAGAAAATATA [TGCATGCA_site285] | 9.42 ± 0.26 |
| TATATATATTTTATATGTACGTATGGAACAATATGA [XGTACX_site8167] | 8.71 ± 0.53 |
| TTTTCTATGCTAAACACACTCATTGTTACAAGTTTT [CACACA_site5531] | 8.72 ± 0.4 |
| TTATTTATTTTTTATACACACAATTATCATTTTAAG [CACACA_site22] | 8.47 ± 0.45 |
| TTATTTTCATATAGGTGTACATAAAAATATTCTTAT [XGTACX_site8861] | 8.71 ± 0.25 |
| AAATTAAGTATATATTGTACACATAATATGATTGTA [XGTACX_site3083] | 8.26 ± 0.28 |
| TATACTAAGAAGTATTTACACACCAACAAGGCGAAA [CACACA_site8963] | 8.53 ± 0.52 |
| TAAGTTTATTGAAATTGTACAAACATAAATGTAAAA [XGTACX_site162] | 8.6 ± 0.4 |
| TTATATTTTTTTTTTTCACACACATTTATATTGTAT [CACACA_site9025] | 8.56 ± 0.54 |
| TATCATAAAAAATATACACACAAAGGATATATATAT [CACACA_site1571] | 9.3 ± 0.14 |
| ATGTTCATTATATGCACACATATATATAAATGTAAT [CACACA_site2908] | 8.38 ± 0.23 |
| TATTTGTTTGTTCGGGTGCTTACATATATTCTTATA [GTGCAC_site9972] | 9.06 ± 0.59 |
| TGTGCCTATAAATTAACACACAGAAATATATAGAGA [CACACA_site818] | 8.62 ± 0.36 |
| TTATTCTGACAGAATTGTACTAATGTCTTTAAAAAA [XGTACX_site1256] | 8.15 ± 0.39 |

| Sequence | gcPBM binding intensity (ln) |
| --- | --- |
| TTAATTAGAAATCATACACACATATAAATAAATATA [CACACA_site6225] | 8.36 ± 0.38 |
| AAGCACAAAAAATACACACACAAAAAATAAAAAAAG [CACACA_site1840] | 8.67 ± 0.52 |
| GAGAAATGGGGACACACACACATATTATATATATAT [CACACA_site4943] | 9.71 ± 0.2 |
| TATATATATCTGTACACACACACATATAAATAAATA [CACACA_site4405] | 8.64 ± 0.28 |
| ATATAAATATATGTATGTACGCATGTATGTATCTAT [XGTACX_site3290] | 8.645 ± 0.049 |
| TATATGCATAATAACTGTACACAAATTGGGGTTGAT [XGTACX_site459] | 9.16 ± 0.59 |
| ATAATGAACAATATTATATATAAAATATAATTTATA [GTGCAC_negctrl_site564] | 8.09 ± 0.52 |
| ATGTATGTTTGTTATGCACACAAATGCATCTTATTT [CACACA_site8861] | 8.73 ± 0.31 |
| ATTATGTATACATAAACACACATATATATAAAAAAA [CACACA_site262] | 8.86 ± 0.44 |
| ATTATATATATGTGCACACAAAAGATATATATATAT [CACACA_site5205] | 10 ± 0.17 |
| ATATTTATTTGTTAGTGTACATACATATATATATAT [XGTACX_site1347] | 10 ± 0.12 |
| AAATAATTTACTTAATGTACATATATATATATATAT [XGTACX_site8594] | 10.59 ± 0.092 |
| TTTTAATTTATTTATGCACACATATATAATTACACA [CACACA_site8126] | 8.39 ± 0.26 |
| AAAAATAAACAATATATAGTTATATATATATATATA [TGCATGCA_negctrl_site82] | 10.1 ± 0.29 |
| TAAGAAAGACAAAAAAAATGAAAAGAAAAAAAATGA [CACACA_negctrl_site1469] | 8.52 ± 0.5 |
| AAATGTTGAAAAATATGTACATATTATATATATTAT [XGTACX_site1165] | 8.56 ± 0.33 |
| AATATAAGCAAATACACACACACATATATATATATA [CACACA_site3805] | 10 ± 0.35 |
| ATTTAGAAAAAATATACACACAGCCTAAACATGCAT [CACACA_site4067] | 8.79 ± 0.23 |
| TATTTATTTGTTTAAGGTACAGAACAAATTTTTATT [XGTACX_site7414] | 8.35 ± 0.42 |
| CATAAATACATACATACACACATATATATATATATA [CACACA_site2106] | 10.2 ± 0.41 |
